Experimental data reported in PubChem BioAssay AID904 (National Center for Advancing Translational Sciences (NCATS), 2007).
Screen size: about 55,000 compounds; about 530 (0.96%) were called active. The shares of active, inactive and inconclusive entries below differ from those in the screen. Calls follow the shape of the dose curve; as a rule, active = well fitted cell-killing curve with a large enough effect; inconclusive = small, poorly fitted or top-dose-only effect; inactive = no such curve, though single readings can be large or run the other way. Potencies beside an inconclusive call are fits to weak or partial responses and may not hold up.
Potency is read from the fitted curve at half-maximal effect; tags tell the direction and shape of the fitted curve.

Assay: qHTS Screen for Compounds that Selectively Target Cancer Cells with p53 Mutations: Cytotoxicity of p53 Null Cells at the Nonpermissive Temperature; also: nearly all actives have a fitted effect of over 50% in size
Conditions: H1299 p53-null (neo) cells, 39C, ATPlite viability, 24 h; series mostly up to 46.1 µM
How it was run: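 Following overnight plating at 37C (600 cells/well), H1299-neo or H1299-p53A138V cells are dosed up to 46 uM. Incubation lasts 24 hr at 39C before ATP detection.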
With COc1cc(Cl)c(NS(=O)(=O)c2ccc(-c3cnc(C4CC4)o3)cc2)c(OC)c1 the Potency was inconclusive: 5.01 µM [cytotoxic, partial curve, poor fit]. In the case of CCOCCCN1C(=O)c2[nH]nc(-c3ccccc3O)c2C1c1ccc(CC)cc1 (stereo not drawn), the Potency is reported as inconclusive: 14.1 µM [cytotoxic, single point]. With O=C(Nc1ccc2nc(SCC(=O)N3CCCC3)sc2c1)c1cccc(Br)c1 the Potency was inconclusive: 0.199 µM [cytotoxic, full curve, poor fit]. In the case of COc1ccc(NC(=O)Cn2c(SCc3ccc(F)cc3)nc3cccnc32)cc1OC, the Potency is reported as inconclusive: 22.4 µM [cytotoxic, partial curve]. For O=C(NCCc1ccc(Cl)cc1)c1ccc(CS(=O)Cc2ccccc2Cl)o1 (stereo not drawn), the Potency was inconclusive: 0.01 µM [cytotoxic, full curve, poor fit]. For CCc1cccc(NC(=O)Cn2c(=O)n(CC(=O)NCCc3ccccc3)c(=O)c3ccccc32)c1, the Potency was active: 12.6 µM. In the case of Cc1ccc(NC(=O)CN2CCSc3ccc(S(=O)(=O)N4CCCC4)cc32)cc1, the Potency is reported as “inactive”. With Cc1ccc(S(=O)(=O)CC(=O)Nc2sc3c(c2C(N)=O)CCCC3)cc1 the Potency was inconclusive: 1.26 µM [cytotoxic, full curve, poor fit]. In the case of COc1ccc(Cl)cc1NS(=O)(=O)c1ccc2[nH]c3c(c2c1)CCCC3, the Potency is reported as inconclusive: 12.6 µM [cytotoxic, partial curve, poor fit]. In the case of CC(C)(C)c1ccc(C(=O)NCCc2csc3nc(-c4ccccc4F)nn23)cc1, the Potency is reported as inconclusive: 0.158 µM [cytotoxic, full curve, poor fit]. In the case of CCCCS(=O)(=O)c1oc(-c2cccs2)nc1S(=O)(=O)c1ccccc1, the Potency is reported as inconclusive: 12.6 µM [cytotoxic, single point]. In the case of COc1cccc(C(=O)Nc2ccc3nc(SCC(=O)N4CCOCC4)sc3c2)c1, the Potency is reported as inconclusive: 0.01 µM [cytotoxic, full curve, poor fit]. For Cn1c(=O)n(C)c2cc(NS(=O)(=O)c3ccc(F)cc3)ccc21, the Potency was inconclusive: 11.2 µM [cytotoxic, partial curve]. With O=S(=O)(NCc1ccc(F)cc1)c1ccc(-c2cnc(C3CC3)o2)cc1 the Potency was inconclusive: 12.6 µM [cytotoxic, partial curve, poor fit]. For CCN(CC)CC(C)CNC(=O)c1cc(-c2ccc(Br)s2)nc2ccccc12 (stereo not drawn), the Potency was inconclusive: 25.1 µM [cytotoxic, single point]. In the case of COc1cccc(CN(C(=O)c2oc3cc(C)ccc3c2C)C2CCS(=O)(=O)C2)c1 (stereo not drawn), the Potency is reported as “inactive”. For CCCn1c(=O)sc2cc(NC(=O)COc3ccc(Cl)cc3)ccc21, the Potency was inconclusive: 11.2 µM [cytotoxic, partial curve]. In the case of CCCC1=Nc2cc(C(=O)NC3CCCC3)ccc2Sc2ccc(C)cc21, the Potency is reported as inconclusive: 0.891 µM [cytotoxic, full curve, poor fit]. For CC(=O)OCc1nc2sc(C)c(C)c2c(=O)[nH]1, the Potency was “inactive”. In the case of CCc1ccc(Nc2nn(-c3ccc(OC(F)(F)F)cc3)nc2C(C)=O)cc1, the Potency is reported as inconclusive: 0.199 µM [cytotoxic, full curve, poor fit]. For O=S(=O)(Nc1cc(F)ccc1F)c1ccc2[nH]c3c(c2c1)CCCC3, the Potency was inconclusive: 11.2 µM [cytotoxic, partial curve]. In the case of COc1ccc(-c2cc(C(F)(F)F)nc(S(C)(=O)=O)n2)cc1, the Potency is reported as inconclusive: 3.16 µM [cytotoxic, single point]. For O=C1N(Cc2ccccc2)c2ccc(Cl)cc2C1(O)c1c[nH]c2ccccc12 (stereo not drawn), the Potency was inconclusive: 35.5 µM [cytotoxic, single point]. For Cc1ccc(NS(=O)(=O)c2ccc3c(c2)n(C)c(=O)n3C)cc1C, the Potency was inconclusive: 12.6 µM [cytotoxic, single point]. For COc1ccc(NC(=O)Cn2cnc3sc(C)c(S(=O)(=O)N4CCN(c5ccccc5OC)CC4)c3c2=O)cc1OC, the Potency was inconclusive: 22.4 µM [cytotoxic, single point]. In the case of CCCCC(=O)Oc1ccc2oc(-c3ccc(OC)cc3)cc(=O)c2c1, the Potency is reported as inconclusive: 10 µM [cytotoxic, partial curve]. In the case of CCCCN(CC)CCCNC(=O)Cn1ncc2c3ccccc3n(Cc3ccccc3F)c2c1=O, the Potency is reported as inconclusive: 0.141 µM [cytotoxic, full curve, poor fit]. For CN1CCN(C(=O)Cn2c(-c3cccs3)cc3cc(Cl)ccc32)CC1, the Potency was inconclusive: 17.8 µM [cytotoxic, single point]. With COC(=O)c1cc(NC(=O)c2nn(C)c3c2CSc2ccccc2-3)cc(C(=O)OC)c1 the Potency was inconclusive: 2 µM [cytotoxic, partial curve]. For COc1ccc(NC(=O)Nc2nc3c(s2)CCCC3)cc1, the Potency was “inactive”. For CCn1c(/C(C#N)=C/c2ccccc2Cl)nc2ccccc21, the Potency was inconclusive: 15.8 µM [cytotoxic, single point]. In the case of COc1ccc(Nc2c3c(nc4ccc(NC(=O)/C=C/c5cccc(OC)c5OC)cc24)CCCC3)cc1OC, the Potency is reported as active: 3.16 µM. For COC(=O)c1ccccc1NC(=O)c1ccc2c(=O)n3c(nc2c1)CCCCC3, the Potency was inconclusive: 10 µM [cytotoxic, partial curve]. In the case of COc1ccc(C(=O)NCC(c2ccc(N(C)C)cc2)N2CCc3ccccc32)cc1 (stereo not drawn), the Potency is reported as inconclusive: 0.0251 µM [cytotoxic, full curve, poor fit]. For Cc1cc(C)c2oc(C(=O)Nc3ccc(S(=O)(=O)N4CCC(C)CC4)cc3)cc(=O)c2c1, the Potency was inconclusive: 2.51 µM [cytotoxic, single point]. With CCCCn1c(=N)c(C(=O)NC2CCCCC2)cc2c(=O)n3cccc(C)c3nc21 the Potency was “inactive”. In the case of CCN(CCCNC(=O)c1cc2cc3ccc(OC)cc3nc2s1)c1cccc(C)c1, the Potency is reported as inconclusive: 11.2 µM [cytotoxic, partial curve]. For CCCN1C(=O)c2[nH]nc(-c3cccc(OC)c3)c2C1c1ccccn1 (stereo not drawn), the Potency was inconclusive: 10 µM [cytotoxic, partial curve, poor fit].
